Measured values as given in PubChem BioAssay AID1645882 (National Center for Advancing Translational Sciences (NCATS), 2021).
The campaign covered roughly 16,000 compounds. About 120 (0.75%) were called active. Another 4% or so got no clear call; they are omitted. Calls come from the whole dose curve; as a rule, active = well fitted inhibition curve with a large enough effect; inconclusive = small, poorly fitted or top-dose-only effect; inactive = no such curve, though single readings can be large or run the other way. The list shows a part of the results.

target: Rap guanine nucleotide exchange factor 3 (Homo sapiens) (UniProt O95398); assay: Validation qHTS for antagonist of cAMP-regulated guanine nucleotide exchange factor 3 (EPAC1); conditions: EPAC1 Rap1B-BODIPY-GDP exchange, fluorescence; series mostly up to 150 µM; activity change, negative = inhibition: at the top concentration;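 note: plate controls were DMSO for no effect and ATA control for full effect; nearly all actives have a fitted effect of over 75% in size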
Chain of UniProt O95398 (O95398 whole entry, looked up): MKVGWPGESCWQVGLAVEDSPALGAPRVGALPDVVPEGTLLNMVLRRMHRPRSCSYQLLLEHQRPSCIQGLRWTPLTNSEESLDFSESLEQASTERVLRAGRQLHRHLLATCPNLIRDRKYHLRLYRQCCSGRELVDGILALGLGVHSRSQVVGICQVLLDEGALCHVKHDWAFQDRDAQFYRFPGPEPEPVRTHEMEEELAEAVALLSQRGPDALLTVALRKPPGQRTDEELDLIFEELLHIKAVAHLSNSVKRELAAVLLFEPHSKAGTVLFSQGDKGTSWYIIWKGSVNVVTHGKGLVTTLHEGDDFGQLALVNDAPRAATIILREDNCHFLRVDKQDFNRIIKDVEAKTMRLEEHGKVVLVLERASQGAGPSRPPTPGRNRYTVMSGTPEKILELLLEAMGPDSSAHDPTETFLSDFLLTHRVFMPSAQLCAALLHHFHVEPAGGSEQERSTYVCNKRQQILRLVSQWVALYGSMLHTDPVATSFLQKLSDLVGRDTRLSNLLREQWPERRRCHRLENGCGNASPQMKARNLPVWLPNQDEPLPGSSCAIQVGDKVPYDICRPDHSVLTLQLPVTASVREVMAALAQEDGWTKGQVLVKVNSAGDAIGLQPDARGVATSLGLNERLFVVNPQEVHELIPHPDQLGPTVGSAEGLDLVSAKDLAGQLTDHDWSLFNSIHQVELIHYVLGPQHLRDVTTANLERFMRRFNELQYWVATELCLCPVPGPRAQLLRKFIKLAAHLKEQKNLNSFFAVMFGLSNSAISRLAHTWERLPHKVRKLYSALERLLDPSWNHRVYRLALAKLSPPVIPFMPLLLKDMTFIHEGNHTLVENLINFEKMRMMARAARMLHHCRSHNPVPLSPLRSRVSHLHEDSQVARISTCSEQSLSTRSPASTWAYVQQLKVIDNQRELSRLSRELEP
In short: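 EPAC1 (100 nM) mixed with 250 nM RAP1B-BODIPY-GDP and 50 uM GDP; compounds in concentration series, 5 min at room temperature. Fluorescence (ex 480/em 540 nm) read every 5 min for 30 min; normalized to ATA control and DMSO.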

| Compound | activity change, negative = inhibition |
| --- | --- |
| CN1CCN(c2ncc3nc(-c4cccs4)c(=O)n(Cc4cccs4)c3n2)CC1 | inactive: 16.8% |
| CO[C@H]1[C@@H](O)[C@H](N)[C@@H](O[C@H]2O[C@H]([C@H](C)N)CC[C@H]2N)[C@H](O)[C@@H]1N(C)C(=O)CN | inactive: 30.2% |
| CSc1ncccc1C(=O)N1CCOc2ccc(C(C)(O)CCn3cccn3)cc2C1 (stereo unspecified) | inactive: 10.6% |
| C[N+]1(C)C2CCC1CC(OC(=O)C(O)c1ccccc1)C2 (stereo unspecified) | inactive: 6.68% |
| CO[C@@]12C[C@@H](COC(=O)c3cncc(Br)c3)CN(C)[C@H]1Cc1cn(C)c3cccc2c13 | inactive: 6.5% |
| COCCn1c(=O)c(-c2ccc(Cl)cc2)nc2cnc(N(C)C)nc21 | inactive: -6.09% |
| COc1cccc(-c2ccc3ncnc(NCc4cccs4)c3c2)c1 | inactive: 2.01% |
| Cc1c(F)c(N2CCNC(C)C2)cc2c1c(=O)c(C(=O)O)cn2C1CC1 (stereo unspecified) | inactive: 17.3% |
| C[C@@H]1O[C@@H](O[C@H]2[C@H](Oc3cc(O)c4c(c3)O[C@H](c3ccc(O)cc3)CC4=O)O[C@H](CO)[C@@H](O)[C@@H]2O)[C@H](O)[C@H](O)[C@H]1O | inactive: 10.5% |
| COC(=O)N1CCC[C@@]2(CCN(C(=O)Nc3ccccc3)C2)C1 | inactive: 6.1% |
| CC(=O)OC1CC2C(C)(C)C(O)CCC2(C)C2CC[C@]3(C)C(=CC(=O)OC3c3ccoc3)C12C (stereo partly specified) | inactive: -3.03% |
| O=C(O)C1=CC(O)[C@@H](O)C(O)C1 (stereo partly specified) | inactive: 15.1% |
| CCOC(=O)N1CCN(c2nc(CN3CCCCC3CCO)nc3c(C)cccc23)CC1 (stereo unspecified) | inactive: 12.9% |
| CSc1ccc(C(=O)N2CCc3c(cnc(C)c3CNC(=O)c3cncs3)C2)cc1 | inactive: 9.18% |
| COc1cc2c(cc1OC)Cc1cc(OC)c(OC)cc1Cc1cc(OC)c(OC)cc1C2 | inactive: -3.76% |
| CCN1CCCC1=O | inactive: 8.86% |
| CN(Cc1ccon1)C(=O)c1cnn(-c2ncc3c(n2)-c2ccccc2CCC3)c1C1CC1 | inactive: 13.2% |
| COc1ccc(-n2c(=O)c(-c3ccc(Cl)cc3)nc3cncnc32)cc1 | inactive: 15.3% |
| O=C(c1ccco1)N1CCC2(CCN(Cc3nccs3)CC2)CC1 | inactive: 12.7% |
| Cc1ccccc1CN1CCCOCCS1(=O)=O | inactive: 9.54% |
| COc1cc2nc(CN(CCO)C3CS(=O)(=O)CC3O)nc(N3CCCCC3)c2cc1OC (stereo unspecified) | inactive: 12.5% |

| Compound | activity change, negative = inhibition |
| --- | --- |
| CCC1(C2CCN(Cc3ccc(OC)cc3)CC2)NC(=O)N(CC2COc3ccccc3O2)C1=O (stereo unspecified) | inactive: 19.2% |
| COc1ccc(OC)c(C(=O)N2CCOc3ccc(C(C)(O)CN(C)C)cc3C2)c1 (stereo unspecified) | inactive: 11% |
| O=C(CCCCC(=O)Nc1c(I)cc(I)c(C(=O)O)c1I)Nc1c(I)cc(I)c(C(=O)O)c1I | inactive |
| CC(C)Cc1nc2cc(NS(=O)(=O)N(C)C)cc(C(=O)N3CCOCC3)c2n1C | inactive: 23% |
| COC(=O)N1CCC[C@@]2(CCN(c3ccncc3)C2)C1 | inactive: 6.84% |
| CN(C)c1ncc2ncc(=O)n(Cc3ccc(F)cc3)c2n1 | inactive: 6.87% |
| Cc1ccc(C(=O)[C@@H]2[C@H]3C4COC(O4)C(=O)[C@@H]3[C@H]3C=Cc4ccccc4N32)cc1 (stereo partly specified) | inactive: 20.3% |
| NS(=O)(=O)C#Cc1ccccc1 | inactive: 16.1% [at 75.8 µM] |
| Cc1ccc(CNc2nc(C)c(-c3ccn(CCN4CCOCC4)n3)s2)o1 | inactive: 3.77% |
| CC(=O)C1=C(O)C=C2Oc3c(C(C)=O)c(O)c(C)c(O)c3C2(C)C1=O (stereo unspecified) | inactive: 14.8% |
| Cc1ccc(C(=O)C(C)CN2CCCCC2)cc1 (stereo unspecified) | inactive |
| CNCC[C@@H](Oc1ccccc1C)c1ccccc1 | inactive |
| c1ccc(CN2CCC3(CCCc4ccccc43)CC2)cc1 | inactive: -1.83% [at 75.8 µM] |
| CN(C)c1ccc(N2[C@@H](CC(=O)O)c3cc(C(F)(F)F)ccc3S2(=O)=O)cc1 | inactive: 4.75% |
| O=S1(=O)CCO[C@H]2CCCC[C@@H]2N1Cc1ccccc1Br | inactive: -3.34% |
| COc1cc(/C=C/C(=O)c2c(O)cc(C)oc2=O)ccc1O | inactive: -3.2% |
| Cn1c(=O)c(-c2cc(F)cc(F)c2)nc2cnc(Nc3ccccc3)nc21 | inactive: -4.87% |
| Cc1ccc2cc(CNC(C)c3cccc4ccccc34)c(N3CCC(O)CC3)nc2c1 (stereo unspecified) | inactive: -1.69% |
| C/C=C/c1ccc(O)c(OC)c1 | inactive: 24.4% |
| COc1cc(C(C)=O)cc(OC)c1O | inactive: 2.29% |
| COc1ncc2nc(-c3cc(F)cc(F)c3)c(=O)n(-c3ccccc3)c2n1 | inactive: -1.11% |

| Compound | activity change, negative = inhibition |
| --- | --- |
| CCN(CC)CCCN(c1ccccc1)C1Cc2ccccc2C1 | inactive |
| CCNC(=O)[C@@H]1CCCN1C(=O)[C@H](CCCN=C(N)N)NC(=O)[C@H](CC(C)C)NC(=O)[C@@H](CC(C)C)NC(=O)[C@H](Cc1ccc(O)cc1)NC(=O)[C@H](CO)NC(=O)[C@H](Cc1c[nH]c2ccccc12)NC(=O)[C@H](Cc1cnc[nH]1)NC(=O)[C@@H]1CCC(=O)N1 | inactive: 10.8% |
| CN(C)Cc1ccccc1-c1nc(N2CCOCC2)c2ccccc2n1 | inactive: 18.9% |
| Nc1cccc2[nH]cnc12 | inactive: -20% |
| COC(=O)[C@@H]1CCCN1Cc1ccc2c(c1)CN(Cc1nccs1)CCO2 | inactive: 11.3% |
| O=C(Nc1cccc(F)c1)N1CC2(CCN(S(=O)(=O)c3ccccc3)CC2)C1 | inactive: -1.63% |
| CCC1C(=O)NCCN1Cc1ccc2c(c1)CN(Cc1cc(OC)c3c(c1)OCO3)CCO2 (stereo unspecified) | inactive: -4.23% |
| CCCCCCCCCCCCCCCC(=O)OCC(COC(=O)CCCCCCCCCCCCCCC)OC(=O)CCCCCCCCCCCCCCC | inactive: 12.6% |
| C[C@@H](C(=O)O)c1ccc(-c2ccccc2)c(F)c1 | inactive: 8.51% |
| COC(=O)[C@@H]1[C@H]2SC(C)(C)[C@H](C(=O)OC)N2C(=O)N1Cc1cc2ccccc2n1S(=O)(=O)c1ccccc1 | inactive: 8.96% |
| Cc1ccc2nc(N3CCCCCC3)c(CN(CC3CCCO3)C(=O)c3cncs3)cc2c1 (stereo unspecified) | inactive: -0.783% |
| COc1ccc(CNc2ccnc(-c3cccnc3)n2)c(OC)c1 | inactive: -4.15% |
| CNC(=O)[C@H]1O[C@H](n2cnc3c(NCc4cccc(I)c4)ncnc32)[C@@H](O)[C@@H]1O | inactive: -5.08% |
| CC(C)c1c(C(=O)N(C)Cc2cccc3ncccc23)cnn1-c1nccc(-c2ccccc2F)n1 | inactive: -8.44% |
| CC1=CC(=O)c2ccccc2C1=O | inactive: 14.2% |
| CC1(C)S[C@@H]2[C@H](NC(=O)COc3ccccc3)C(=O)N2C1C(=O)OCC1CCCCC1 (stereo partly specified) | inactive: -14.6% |
| COc1ccccc1CN1CC[C@@]2(CCCN(C(=O)c3cc(C(F)(F)F)cc(C(F)(F)F)c3)C2)C1 | inactive: -6.19% |
| CN(C)c1ccc(-c2ccc3ncnc(N(C)Cc4ccco4)c3c2)cc1 | inactive: -11.5% |
| CN(C)CCOc1ccccc1Cc1ccccc1 | inactive: 30.1% |
